Article PMC11444770, “Moesin contributes to heat shock gene response through direct binding to the Med15 subunit of the Mediator complex in the nucleus” (Open Biology, 2024)
Results are given in words; binding and its absence hold for the method and conditions named. For some assays here: In cells and extracts the contact can be indirect. Some binding calls cover weakened binding; strength is not graded here. For some assays here: Where a sequence is shown, tags or fusion partners need not be part of it.

Amino acid sequences for entries named in this document (tags omitted).
UniProt Q96RN5: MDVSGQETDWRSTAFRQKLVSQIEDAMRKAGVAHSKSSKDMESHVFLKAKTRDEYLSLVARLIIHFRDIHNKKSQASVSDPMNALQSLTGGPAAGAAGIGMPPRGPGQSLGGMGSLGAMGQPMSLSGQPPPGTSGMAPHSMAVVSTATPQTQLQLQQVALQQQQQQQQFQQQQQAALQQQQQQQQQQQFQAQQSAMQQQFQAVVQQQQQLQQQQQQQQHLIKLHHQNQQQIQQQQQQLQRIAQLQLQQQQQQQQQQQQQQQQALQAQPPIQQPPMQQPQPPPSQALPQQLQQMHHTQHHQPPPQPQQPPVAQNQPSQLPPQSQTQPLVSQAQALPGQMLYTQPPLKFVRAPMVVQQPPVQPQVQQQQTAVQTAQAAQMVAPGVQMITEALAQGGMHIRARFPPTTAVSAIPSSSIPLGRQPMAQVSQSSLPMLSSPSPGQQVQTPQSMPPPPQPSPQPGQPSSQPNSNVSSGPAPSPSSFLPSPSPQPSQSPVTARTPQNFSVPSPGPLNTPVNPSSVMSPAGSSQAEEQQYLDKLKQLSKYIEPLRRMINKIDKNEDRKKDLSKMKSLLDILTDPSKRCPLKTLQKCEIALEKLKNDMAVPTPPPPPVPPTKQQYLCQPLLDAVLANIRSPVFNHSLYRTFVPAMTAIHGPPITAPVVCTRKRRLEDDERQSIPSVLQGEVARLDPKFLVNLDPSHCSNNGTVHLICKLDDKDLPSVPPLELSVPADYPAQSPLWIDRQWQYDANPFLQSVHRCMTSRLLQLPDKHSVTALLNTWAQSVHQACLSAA
UniProt P46150: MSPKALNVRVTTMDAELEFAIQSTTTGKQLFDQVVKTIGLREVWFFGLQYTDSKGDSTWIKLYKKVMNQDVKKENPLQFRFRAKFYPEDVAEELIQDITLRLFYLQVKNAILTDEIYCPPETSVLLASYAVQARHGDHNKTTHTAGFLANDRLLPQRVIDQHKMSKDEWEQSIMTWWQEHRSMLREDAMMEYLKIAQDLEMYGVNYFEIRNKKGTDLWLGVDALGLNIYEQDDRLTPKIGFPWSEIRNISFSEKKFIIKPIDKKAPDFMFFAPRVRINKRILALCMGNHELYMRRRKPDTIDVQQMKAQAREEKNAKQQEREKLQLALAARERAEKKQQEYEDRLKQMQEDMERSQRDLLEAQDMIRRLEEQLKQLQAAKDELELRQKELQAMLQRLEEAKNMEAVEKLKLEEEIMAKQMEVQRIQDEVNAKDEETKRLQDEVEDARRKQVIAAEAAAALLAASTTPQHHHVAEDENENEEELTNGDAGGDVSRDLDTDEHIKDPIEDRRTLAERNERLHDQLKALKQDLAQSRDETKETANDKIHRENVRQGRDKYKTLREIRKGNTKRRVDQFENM
UniProt P26038: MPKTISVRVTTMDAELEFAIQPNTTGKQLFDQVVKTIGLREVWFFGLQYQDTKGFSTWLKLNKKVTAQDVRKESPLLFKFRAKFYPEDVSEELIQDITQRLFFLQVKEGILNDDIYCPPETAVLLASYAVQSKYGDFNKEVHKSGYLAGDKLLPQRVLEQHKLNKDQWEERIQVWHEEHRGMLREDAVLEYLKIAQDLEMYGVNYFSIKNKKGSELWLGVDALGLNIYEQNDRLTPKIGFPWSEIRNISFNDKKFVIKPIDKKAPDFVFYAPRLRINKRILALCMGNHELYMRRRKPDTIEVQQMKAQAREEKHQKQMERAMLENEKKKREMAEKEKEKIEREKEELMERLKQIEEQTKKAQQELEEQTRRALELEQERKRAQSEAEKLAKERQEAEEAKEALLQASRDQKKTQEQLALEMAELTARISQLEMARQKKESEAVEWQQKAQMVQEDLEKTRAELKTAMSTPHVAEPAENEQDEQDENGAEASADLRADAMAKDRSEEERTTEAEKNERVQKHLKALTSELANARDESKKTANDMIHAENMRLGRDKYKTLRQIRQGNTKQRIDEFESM
UniProt P15311: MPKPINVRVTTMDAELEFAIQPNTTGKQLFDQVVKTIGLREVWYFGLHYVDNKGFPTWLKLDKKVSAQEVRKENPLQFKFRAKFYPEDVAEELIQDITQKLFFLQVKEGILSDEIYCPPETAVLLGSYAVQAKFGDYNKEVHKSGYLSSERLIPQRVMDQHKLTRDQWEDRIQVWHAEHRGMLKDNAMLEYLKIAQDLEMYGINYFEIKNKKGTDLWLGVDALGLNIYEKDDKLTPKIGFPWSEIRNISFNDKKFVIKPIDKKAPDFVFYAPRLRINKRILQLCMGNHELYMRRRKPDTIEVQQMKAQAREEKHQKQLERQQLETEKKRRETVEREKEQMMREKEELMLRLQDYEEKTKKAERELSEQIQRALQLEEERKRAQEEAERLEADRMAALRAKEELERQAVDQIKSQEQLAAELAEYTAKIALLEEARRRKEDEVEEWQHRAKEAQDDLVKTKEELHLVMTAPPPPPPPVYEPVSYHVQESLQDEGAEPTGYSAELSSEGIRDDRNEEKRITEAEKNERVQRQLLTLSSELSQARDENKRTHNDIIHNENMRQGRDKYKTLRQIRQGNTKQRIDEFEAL

Assays:
[1] = biological target: T1, Med7-FLAG (Drosophila melanogaster) (UniProt Q9GYV9); test: native gel or EMSA; two-dimensional BN-PAGE (native 4-10% gradient gel at 4°C, then SDS-PAGE) of the nuclear fraction of S2R+ cells co-expressing Med15-FLAG and Med7-FLAG; western blot with anti-FLAG and anti-Moe
T1 sequence: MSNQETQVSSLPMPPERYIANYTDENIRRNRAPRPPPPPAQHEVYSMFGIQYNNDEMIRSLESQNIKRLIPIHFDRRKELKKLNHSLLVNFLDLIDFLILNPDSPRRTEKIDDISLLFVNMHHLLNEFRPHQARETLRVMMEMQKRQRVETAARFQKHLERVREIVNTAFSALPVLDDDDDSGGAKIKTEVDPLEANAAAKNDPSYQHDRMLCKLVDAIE

[2] = biological target: T2, Med15-FLAG (Drosophila melanogaster) (UniProt Q9Y149); test: as above
T2 sequence: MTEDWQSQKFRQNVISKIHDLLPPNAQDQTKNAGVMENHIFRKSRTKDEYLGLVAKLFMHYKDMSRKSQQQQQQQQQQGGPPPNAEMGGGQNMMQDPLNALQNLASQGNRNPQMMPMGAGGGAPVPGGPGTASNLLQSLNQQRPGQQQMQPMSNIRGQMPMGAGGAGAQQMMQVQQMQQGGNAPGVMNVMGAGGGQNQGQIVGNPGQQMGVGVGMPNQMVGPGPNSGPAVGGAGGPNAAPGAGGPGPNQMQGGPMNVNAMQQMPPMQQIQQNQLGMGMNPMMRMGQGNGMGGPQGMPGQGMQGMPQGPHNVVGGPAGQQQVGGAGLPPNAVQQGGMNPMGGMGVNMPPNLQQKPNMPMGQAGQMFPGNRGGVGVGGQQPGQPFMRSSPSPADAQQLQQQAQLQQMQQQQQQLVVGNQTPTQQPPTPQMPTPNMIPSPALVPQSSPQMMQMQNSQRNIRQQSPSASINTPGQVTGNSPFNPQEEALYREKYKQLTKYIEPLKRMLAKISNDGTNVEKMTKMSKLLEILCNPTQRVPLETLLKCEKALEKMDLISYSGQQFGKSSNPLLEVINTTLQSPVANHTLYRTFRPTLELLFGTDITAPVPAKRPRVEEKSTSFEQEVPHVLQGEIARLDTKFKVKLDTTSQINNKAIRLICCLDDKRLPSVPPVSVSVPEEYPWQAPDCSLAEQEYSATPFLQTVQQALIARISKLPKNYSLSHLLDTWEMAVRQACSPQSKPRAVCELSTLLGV

[3] = biological target: hMed15-V2 (human) (UniProt Q96RN5); test: split reporter; split Venus (V1/V2) in U2OS cells, fixed 48 h after transfection; confocal and high-throughput microscopy
[4] = biological target: Moesin-GFP (Drosophila melanogaster) (UniProt P46150); test: co-IP; lysate of S2R+ cells co-expressing Moesin-GFP and Med15-FLAG or Med6-FLAG; anti-GFP antibody, Protein G magnetic beads; Lysis Buffer 20 mM Tris pH 7.5, 200 mM NaCl, 10% glycerol, 0.5 mM EDTA, 0.5% NP-40; 4°C; western blot
[5] = biological target: T3, Hsf-NYFP (Drosophila melanogaster) (UniProt P22813); test: split reporter; split YFP (BiFC) in living, unstressed S2R+ cells, 2 days after transfection; confocal microscopy, percent of YFP positive cells
T3 sequence: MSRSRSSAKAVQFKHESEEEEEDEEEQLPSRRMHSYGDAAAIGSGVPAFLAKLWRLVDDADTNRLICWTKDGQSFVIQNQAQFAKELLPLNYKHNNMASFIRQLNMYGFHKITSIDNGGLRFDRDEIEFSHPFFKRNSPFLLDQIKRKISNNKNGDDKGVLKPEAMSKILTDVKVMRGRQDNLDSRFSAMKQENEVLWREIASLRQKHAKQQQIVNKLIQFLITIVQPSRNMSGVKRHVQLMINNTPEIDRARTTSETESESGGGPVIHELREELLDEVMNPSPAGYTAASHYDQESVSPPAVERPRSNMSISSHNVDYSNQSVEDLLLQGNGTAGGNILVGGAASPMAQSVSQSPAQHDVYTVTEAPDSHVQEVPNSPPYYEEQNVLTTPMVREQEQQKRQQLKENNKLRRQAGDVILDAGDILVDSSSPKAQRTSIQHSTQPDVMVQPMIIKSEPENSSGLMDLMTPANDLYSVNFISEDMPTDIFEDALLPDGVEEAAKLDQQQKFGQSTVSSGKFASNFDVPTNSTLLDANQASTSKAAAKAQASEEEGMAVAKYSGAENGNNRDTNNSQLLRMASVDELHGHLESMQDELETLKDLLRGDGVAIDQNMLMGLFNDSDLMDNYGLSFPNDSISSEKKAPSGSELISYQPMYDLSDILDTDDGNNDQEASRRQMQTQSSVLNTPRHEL

[6] = biological target: Moesin-NYFP (Drosophila melanogaster) (UniProt P46150); test: as above
[7] = biological target: Moe-NYFP (transgenic flies) (Drosophila melanogaster) (UniProt P46150); test: split reporter; split YFP in larval salivary glands (Sgs3 Gal4 driver) or adult ovaries of transgenic Drosophila; live imaging

endogenous Moesin (from UniProt P46150 1-578)
binding [1]: binds
binding [2]: binds

hMoesin-V1 (from UniProt P26038 1-577)
binding [3]: binds

hEzrin-V1 (from UniProt P15311 1-586)
binding [3]: binds

B1: Med15-FLAG (protein, UniProt Q9Y149 1-749)
chain: T2 sequence
binding [4]: binds

B2: Med6-FLAG (protein, UniProt Q8MSX2 1-249)
chain: MASRQMTNDHLRLSWHDTQMMATLSPQTVMDYFCRKSNPFYDHMCNNETVRMQRLGPEHLHNMIGLEYILLHVAEPILYVIRKQHRHNPSEATPIADYYIIGGTVYKAPDLANVINSRILNTVVNLQSAFEEASSYARYHPNKGYTWDFSSNKVFSDRSKSDKKDANSAKDENSGTLFQKQRVDMLLAELLRKFPPPIPPMLQNLQQPPPAGDDLNTARNASEMNNATGPLDIKTEGVDMKPPPEKKSK
binding [4]: binds

B3: Med15-CYFP (protein, UniProt Q9Y149 1-749)
chain: T2 sequence
binding [5]: binds
binding [6]: binds

B4: Med15-CYFP (transgenic flies) (protein, UniProt Q9Y149 1-749)
chain: T2 sequence
binding [7]: binds

B5: 6xHis-Hsf (natural protein, Drosophila melanogaster, UniProt P22813 1-691, looked up)
chain: T3 sequence
notes: heat shock factor (Hsf), the Drosophila Hsf1 homologue; The methods say C-terminal 6xHis tagging in pDEST17, while the label 6xHis-Hsf puts the tag first; as far as I recall pDEST17 adds an N-terminal His tag; also called heat shock factor; source: E. coli, purified (HisPur Cobalt Resin or Ni-NTA beads); not shown: 6xHis, C-terminal, kept
binding [6]: binds

B6: Med19 (split YFP control, CYFP-tagged) (protein, UniProt Q9VVL6 1-337)
chain: MMSNYGNMMDSPKSSPHGGGRSPVVARQDSSGTLKTTISLGKTPTIIHTGPFYSMKEPPAKAELTGDKDLMTEYGLHHTLTKFKEKKFKESLASFLQNIPGINDLITHPVENSTLRSVIEKPPIGGKELLPLTPVQLAGFRLHPGPLPEQYRTTYVTPARKHKNKHKKQKHKDGVTTGQESTLLDSAGLETYEKKHKKQKRHEDDKERKKRKKEKKRKKKNQSPEPGVGLLPGGASLGGAAGVMGATSLGSLGGGPGGPGLSSLSASMGPGVVGNMNSFSSSMQMQQQQQMPMQQQQMSSGGLLGSVLGTSGGPGGGGGGGGGGGGGVGGSLLMSQF
binding [6]: no binding
